The record followed here is the RNAGym collection of RNA variant scans (doi:10.7554/elife.90254).

B1: LINE1-mini (parent)
chain: GGCAGAGCUCAACACAGCGUGGCAAAGUGGCUGUGGCUAGACUGCC

The source gives no read counts; variants with many changes may rest on few reads.

The series covers variants of B1. The experiment in a line: self-cleavage, relative activity (ratio to wild type); higher = more cleavage; in vitro, sequencing; the parent is a self-cleaving ribozyme.
A14G G19A G33A C37U: the self-cleavage was 0.03.
G1C G7C G22A: the self-cleavage was determined as 0.05.
With G1A G2U A16U U38G the figure was 0.02; with G2U G5U A41U, 0.01.
On to A6U G17C C37U, for which the self-cleavage amounted to 0.11.
For the variant G30U G35A C45A, the self-cleavage was 0.02.
With G1A A14G C15U G21U G29C G30C C37G the figure was 0.02.
For the variant A4G G7A C45G, the self-cleavage stood at 0.79.
For C10G G27U G33U G44A the value was 0.02; for G2C U9G G19A, 0.22; for G29A G40A U43C C46G, 0.01.
For A12C G22U C23A U43G the value was 0.01; for G1U A14U C42A, 0.06.
With G7A A24C G29C U34A the figure was 0.1.
Regarding C3A U20G U28G G36U U43C G44C, the self-cleavage was 0.02.
For the variant C3A U28A C42U, the self-cleavage is 0.24.
With U9G A14U U32C the figure was 0.04.
For U28A U34C G36A the value was 0.03; for A4U U9A A25C G33A, 0.21.
For C13U U20C G22A the value was 0.02; for A11G G19C C45U, 0.
In the case of C10A A16C A25U G36A G40A, the self-cleavage was determined as 0.01.
With G2C A12U A16U G29U G33C G40U the figure was 0.04; with G30A G35A C42A, 0.12; with G5U C18U A39G, 0.04.
With C13A G33C A39G the figure was 0.03.
With A14G C31U G33A G36C the figure was 0.06; with G17C G33U U43A, 0.14; with A4C C8U C18G G21U C45A, 0.26.
For G1A C8G A41C, the self-cleavage is 0.24.
For C10A A11C G27A C31A the value was 0.03; for C3G G7A C8U, 0.43.
With G7U C8G C15A G29U the figure was 0.16.
With G5C A25U G36A, the self-cleavage was 0.04.
With G19A C23A U28A G30U G40U C42U the figure was 0.08.
As for C10A G27U A41U, the self-cleavage was 0.02.
With A6C C15A G21A the figure was 0.06.
With G2C G17U G22U G29U G30C C37A the figure was 0.09.
With C13U G33C C37U C45G the figure was 0.02; with C8A U9G C18A G21C A39U, 0.02; with G21C A26U G30C G40U, 0.05.
On to C10A A11C C18U U38A, for which the self-cleavage turned out to be 0.
With C3U A4U U9G C15A the figure was 0.15; with A6G U9A G17U A26U, 0.03.
For U9A C15U G44C the value was 0.16.
With G2C C23U A25G the figure was 0.06; with G5A G21U G29A, 0.13.
Turning to G1A A6U C10A, the self-cleavage was 0.06.
In the case of A6C A25C C31U G33C, the self-cleavage stood at 0.05.
For G2C A39U G44U the value was 0.07; for C23G G29U G36A, 0.03; for A11G U20C G21C, 0.03.
With C10A A41C C46U the figure was 0.01; with C8G C23G G33C A39G, 0.08; with A4U C23A G30U A39U, 0.16.
For G5A G30U U32C the value was 0.03; for G22A U28G C45G, 0.47.
For the variant A4U A12U G21U G30A C42G, the self-cleavage was determined as 0.01.
With G7U A39G C42U the figure was 0.02; with G2C C31U G35U G40C, 0.02.
For G22U U43A G44U the value was 0.1; for U9A A12U A16C, 0.11; for C23G C31A G40C A41U, 0.05.
With U9A C10G A11U A39U C45G the figure was 0.04; with G2C C18U A39U, 0.04.
As for G7A G19U G33U G40C C42A, the self-cleavage was 0.04.
With U9A A14U C31U G35U G36U the figure was 0.03; with G22U U28G G35U, 0.06; with G17A G21C G29C, 1.27.
For G7C C10A U20A C42A the value was 0; for G2C C10U U20A C31A, 0.01.
With G5A A16C G29U G40A C42G the figure was 0.07.
Regarding A12U C18A G21A A25U G44C, the self-cleavage stood at 0.03.
For G5U G7A C8U G27A the value was 0.24.
With G2A G29A G44A the figure was 1.27.
For U9C A14C U20G the value was 0.02; for G17A G30A C42A, 0.09; for G5A A11U G21C A24U, 0.01.
Turning to C13U U28C C31U, the self-cleavage is 0.01.
In the case of C8A C18A G21U, the self-cleavage was 0.14.
With A14C A24U A25U U43C the figure was 0.03; with C8A A25C G33C, 0.05.
For A11U C37A G44A the value was 0.01.
On to C8G C13A G21C C37A C42G, for which the self-cleavage stood at 0.13.
For C31A A39U A41U the value was 0.01.
For C3G A6G C8U the value was 0.48; for G2A C10G G17C G44A, 0.43; for C8G C18G G22A G40U, 0.05.
A4G C15G G33A C42G: the self-cleavage turned out to be 0.01.
With C15U U20G C37G C45G the figure was 0.04.
With A4C C10A G17A the figure was 0.04; with G1U G5A G35A, 0.17; with G2A U20G G27A G29U, 0.49.
For A12U G17A U38A the value was 0.02.
As to A14U C45G C46G, the self-cleavage worked out at 0.08.
As for C13G G17C U20G, the self-cleavage amounted to 0.12.
As to A16C U20G G21A G22U C23A, the self-cleavage stood at 0.26.
For C3U C8A A14G G17C C23A the value was 0.23; for A4U U9C G19U, 0.07; for G2U C10U C13G A25U, 0.01.
With C8G C15U G17U G36C C37U the figure was 0.04.
Consider A14G A16C G17C G27A G33U A39U C42U, for which the self-cleavage came to 0.11.
As for A12G G17U A26C C37U, the self-cleavage was found to be 0.02.
With C10A C13A G19A G27U the figure was 0.02; with U9G A11G G22U, 0.02; with C3A G5A A11G C37G C45U, 0.03.
With A11G C13U A16G G21C the figure was 0.
For the variant C8U C23U G33A, the self-cleavage was found to be 0.02.
With G2C G17A A26U C37U C45A C46A the figure was 0.02.
For A4U C10G G36C the value was 0.02; for G1U C8U C18A G40C, 0.09.
Regarding G1C G2U A39U, the self-cleavage stood at 0.02.
With A4U A24G G30A G44C, the self-cleavage amounted to 0.09.
Take A6C G7A U43A C45U: the self-cleavage came out at 0.07.
Regarding C3A C10G G17A G40U C46A, the self-cleavage came to 0.03.
For C18U C23A G30U U32G G44U the value was 0.05; for U9A A39U G40U C45A, 0.08; for C3U G5C G19C C31U, 0.04.
Regarding G22C C23A G36U A39U G40A, the self-cleavage stood at 0.09.
With C8G G19A U34G G35A G44U the figure was 0.
For U9A U34G A41C the value was 0.05; for C3A A4G C8U A25C G30U U34C, 0.11.
With G17C G27U G35A the figure was 0.08; with C13A A14G G19A C23U G40U G44U, 0.07.
Take U9C G27C G29U G35A C45A: the self-cleavage was 0.01.
With A11C A16G C45U the figure was 0; with C23G A26G C31A G33U G40A, 0; with C3A A4G C18A G33U, 0.06.
For the variant G1U G27A C45A, the self-cleavage is 0.22.
For U9C C18G U20A C42A the value was 0.
With A6C A11C C18G G21U C23A A25G U38C U43A the figure was 0.02.
As to G7C U38C A39C, the self-cleavage was found to be 0.14.
For A14C C15U U28C the value was 0.08; for G19A A26G G30A, 1.83; for C3G C8A C13G G17U A25G U28G U32C U38C, 0.68.
As to C10U A25G U28C G30U G35A, the self-cleavage was 0.02.
With A12G C13G G27U the figure was 0.12.
Take C13G A16U U20A: the self-cleavage is 0.08.
With G1C A16G G22U G30U C46A the figure was 0; with C13G A16C C31A, 0.04; with G19A G29U U34A, 1.2.
With C8U A16U C18A G21U G40C the figure was 0; with C31A G44A C46G, 0.11; with G2U A6C G17U, 0.03.
For A11G C15U C46A the value was 0.08; for G5U C13U G19A G22C A39C C45U, 0.13; for C10G A14U G21U, 0.03.
Take C15G G27A U32A A39C G44U: the self-cleavage is 0.
For G2C U20C A24C C31A G44A the value was 0.03; for G1A C13G A14U A39G A41C, 0.03; for C13G A14U G19A G36A, 0.09.
For C10G C18A G30C the value was 0.15; for C3A G21A C23G, 0.47.
For U9C G30C U32C C46A the value was 0.01.
Turning to G1C C8G G17A G21U C45A, the self-cleavage was determined as 0.
For A16C G17C C31G G35A the value was 0.02; for C31G C42A G44U, 0.04.
With G2U G7A C31A the figure was 0.03; with A6C U9A G21U G36U, 0.05; with C18G G22A G30C, 0.29.
For G33A C42G C45U the value was 0.03; for A4C C10G C13U G27U U32A G33C C46A, 0.01; for C3U A11C G19U G21A, 0.15.
U20A C23A C37U A39G: the self-cleavage is 0.01.
With C8A C18A C37A the figure was 0.01; with C3A G36U C37A, 0.31; with U20A U28C G30A, 0.23.
